From article PMC6919601, “Identification of Plasmodium dipeptidyl aminopeptidase allosteric inhibitors by high throughput screening” (PLoS ONE, 2019)
Screen size: about 110,000 compounds; about 230 (0.21%) showed an effect of 50% or more. This is one part of the list.

The compounds below were run against DPAP1 (Plasmodium falciparum, UniProt Q8IIJ9) (assay: primary screen, percent inhibition; read by cleavage of a fluorogenic dipeptide substrate; higher = more effect of the substance).
Parameters: species or system P. falciparum D10 trophozoite lysates; single well
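Also: 30 min substrate incubation versus DMSO and 10 µM JCP410 controls.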

DPAP1, sequence (Q8IIJ9 whole entry, looked up): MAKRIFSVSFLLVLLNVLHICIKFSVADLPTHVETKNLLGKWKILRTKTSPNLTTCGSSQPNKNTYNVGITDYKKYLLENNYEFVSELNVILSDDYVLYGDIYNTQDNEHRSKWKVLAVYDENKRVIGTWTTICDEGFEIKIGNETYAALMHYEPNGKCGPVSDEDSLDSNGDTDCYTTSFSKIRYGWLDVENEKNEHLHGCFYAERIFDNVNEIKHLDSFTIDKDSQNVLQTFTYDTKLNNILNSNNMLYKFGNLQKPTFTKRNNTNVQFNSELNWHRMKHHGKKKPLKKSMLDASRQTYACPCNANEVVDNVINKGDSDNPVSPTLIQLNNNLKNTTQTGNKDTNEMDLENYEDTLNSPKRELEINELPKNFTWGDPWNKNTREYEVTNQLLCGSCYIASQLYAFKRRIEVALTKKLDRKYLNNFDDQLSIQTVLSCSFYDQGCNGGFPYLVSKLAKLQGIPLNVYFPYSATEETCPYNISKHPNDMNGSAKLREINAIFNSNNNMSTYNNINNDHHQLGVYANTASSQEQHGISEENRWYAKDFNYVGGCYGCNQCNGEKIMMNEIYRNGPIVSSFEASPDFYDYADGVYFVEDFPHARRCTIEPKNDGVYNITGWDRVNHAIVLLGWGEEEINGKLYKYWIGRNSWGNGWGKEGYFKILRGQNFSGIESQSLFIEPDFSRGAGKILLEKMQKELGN

Compound	% Inhibition @ 10 uM [%]
CC(C)C(=O)N1CCC(C/N=C/C2=C(O)CC(C)(C)CC2=O)CC1	4.55
O=C(Cn1ncc2c3ccccc3nc-2c1O)N1CCC(Cc2ccccc2)CC1	-1.46
COc1ccccc1C(=O)Nc1sc2c(c1C(=O)O)CCCC2	14.4
CCC(C(=O)NCc1ccco1)n1nc(C)c2c(C)n(-c3ccccc3)nc2c1=O (centres unmarked)	-6.13
CO/N=C(/C(=O)O)c1cn2cc(Br)ccc2n1	-7.87
CCCCCOc1ccc(C2NC(C(=O)O)CS2)cc1 (centres unmarked)	-2.54
COc1cc(C2c3c(oc4ccccc4c3=O)C(=O)N2c2nncs2)ccc1O (centres unmarked)	2.1
CC(C)CC(=O)NC1(C(F)(F)F)N=C(c2ccccc2)NC1=O (centres unmarked)	2.64
N#Cc1ccc(-n2nnc3ccccc32)cc1	2.99
Cc1ccc(C(=O)Nc2c(C)nn(Cc3ccc(Cl)cc3)c2C)cc1	-2.99
N#Cc1c(-n2ncnc2-c2ccc(Cl)cc2Cl)sc2c1CCCCC2	2.65
CC(=O)c1cccc(NC(=O)CSc2ncccn2)c1	0.643
CC(C)N(Cc1nc(-c2ccccc2)no1)C(=O)C(c1ccccc1)c1ccccc1	-3.06
Oc1c2c(nc3nc(NCc4cccs4)nn13)CCC2	-2.62
CC(=O)NC1=NN(C(C)=O)C(C)(CS(=O)(=O)c2ccc(C)cc2)S1 (centres unmarked)	3.53
COc1ccc2c(Cl)c(C(=O)N3CCCC3)sc2c1	0.565
O=C(c1cccc(F)c1)N1CCN(c2ccc(Cl)cc2)CC1	1.27
COc1ccc(CCNC(=O)c2csc3c2CCCC3)c(OC)c1	-5.05
O=C(c1cnn(-c2ccccc2)c1-n1cccc1)N1CCC(C(=O)N2CCc3ccccc3C2)CC1	-5.19
COc1ccc(CN2CCN(Cc3cccc(Cl)c3)CC2)c(OC)c1OC	-10.5
OC1(c2ccccc2)CCC(O)(c2ccccc2)CC1 (centres unmarked)	-3.9
O=C(c1ccncc1)N1CCN(Cc2ccc(Br)cc2)CC1	-3.13
COc1ccc(-c2nc(CSc3nnc(C)n4c3cc3oc(C)cc34)c(C)o2)cc1	3.61
O=C(c1ccccc1)c1ccc2nc(N3CCN(C(=O)c4ccco4)CC3)c3nncn3c2c1	4.05
CCC(C)NC(=O)CCCn1nc(C)n2c(cc3sccc32)c1=O (centres unmarked)	0.137

Compound	% Inhibition @ 10 uM [%]
CCOc1ccccc1CNC(=O)C1=Cc2sc(C)c(C)c2CS1	5.4
CC1CCN(C(=O)c2ccc(-n3ccc4ccccc43)s2)CC1	5.72
O=C(NCc1ccccc1)C12CC3CC(CC(Cl)(C3)C1)C2	-1.77
O=C(Nc1ccc2c(c1)OCCO2)c1ccc(Br)o1	-0.598
COc1ccc(OC)c(C2C3=C(CC(C)(C)CC3=O)OC3=C2C(=O)CC(C)(C)C3)c1	-5.15
Cn1cc(/C=C(\NC(=O)c2ccco2)C(=O)NCc2ccccc2)c2ccccc21	-0.0235
Cc1ccccc1C(=O)N1CCN(C2=C(Cl)C(=O)c3ccccc3C2=O)CC1	1.84
CC(=O)NC1=C(Cl)C(=O)c2ccccc2C1=O	0.974
CSc1nc2sc3c(c2c(=O)n1Cc1ccccc1)CCC3	4.57
Cn1c(=O)c2c(-c3ccccc3Cl)n(CC3CCCO3)cc2n(C)c1=O (centres unmarked)	-1.35
O=C(Nc1cccnc1)c1ccc(-c2ccccc2)cc1	-4.66
Cc1ccccc1Cn1c(C)c(CNCCc2c[nH]c3ccccc23)c(C(=O)O)c1C	8.86
N#Cc1c(NC(=O)c2ccco2)sc2c1CCCCC2	-2.51
Cc1cc(C)c(S(=O)(=O)Nc2cccc(C(F)(F)F)c2)c(C)c1	-3.48
COc1ccc(CN2CCN(Cc3cccnc3)CC2)cc1OC	-8.23
CCCNC(=O)C1C2C=CC3(CN(Cc4ccccc4Cl)C(=O)C13)O2 (centres unmarked)	-6.4
CC(C)(C)C1CCC(NCCN2CCCCC2)CC1 (centres unmarked)	-5.9
O=CN1CCN(Cc2ccc(F)c(Br)c2)CC1	-3.6
CCCCSc1nc(O)cc(=O)n1CC	-0.833
COc1ccc(/C=C(/NC(=O)c2ccc(Cl)cc2Cl)C(=O)N2CC(C)OC(C)C2)cc1 (centres unmarked)	-1.06
CCOC(=O)C1=C(C)N=c2s/c(=C\c3ccccc3F)c(=O)n2C1c1ccc(Cl)cc1 (centres unmarked)	-1.5
O=[N+]([O-])c1cccc2cc(F)c(F)cc12	2.62
COc1ccc(OC)c(C2C3C(=NN2C(C)=O)C2CCN3CC2)c1 (centres unmarked)	2.57
COc1cccc(S(=O)(=O)NCC(=O)N2CCCC2)c1	-3.37
CCN(CC)S(=O)(=O)c1nnc(NC(=O)c2ccc(F)cc2)s1	3.3
